# Data from the supplement of paper PMC11417369.
# The other results are listed elsewhere or left out.
# Tested on: PfAP2-HC AP2 domain (GST-tagged)
# Test: gcPBM binding intensity (ln(normalized median fluorescence intensity)); higher = stronger DNA binding
# Procedure, shortened: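 An Agilent 4 × 180k array carrying primer-extended double-stranded 36-bp intergenic genomic probes and negative controls received GST-tagged P. falciparum DNA-binding domains expressed in E. coli, about 25 μg on average, for 1 h. The binding buffer contained 1× PBS, 1% milk, 0.2 mg/ml BSA, 0.5% salmon testes DNA and 0.03% Triton X-100. Binding intensity is the top Masliner-normalised natural-log median intensity across replicate spots of either probe orientation, read after Alexa488 anti-GST antibody staining and a 488 nm scan.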
row,Sequence,gcPBM binding intensity (ln)
1,AAAAACAAAATTTGGAGTACAGTTATAATATTATTA [XGTACX_site5245],9.49
2,TTATAAAGAAAAAATTGCTTTAAAAGAAAGATTACA [CACACA_negctrl_site960],9.23
3,TTTTATGTTTATGTGGTGCATGTTTTGAAGAAAATA [GTGCAC_site9616],9.66
4,TATAAACCGACGAAAACACACATATGTAAATATATA [CACACA_site491],9.95
5,AAACCTATGTATATTATACACACTCCAAACTATTAT [CACACA_site8536],9.88
6,ATTACCATATTTTGTACACACATCTTTATCTCAATA [CACACA_site3217],10.2
7,TAAAAATTAAAGTGTACACATATATATATATATATA [CACACA_site4781],9.73
8,TAAAATAATATATGGTGTACACAAAAGTATAAATAA [XGTACX_site4991],10
9,AAAAAAATAATTAACACACACATGTATATCTATATA [CACACA_site3139],10.1
10,ATATAAAAAAAATTTAGTACATATATATATATATAT [XGTACX_site8635],9.62
11,TATATATATATATTATGTACTCATTTATTATCTTTT [XGTACX_site8051],9.91
12,CGGGGGTAGTTTTATGCACACGTTTATTAATGCTTC [CACACA_site5717],10.1
13,ACCAATAATATACATACACACATAAATGTTTATATA [CACACA_site4328],9.8
14,ACATGAATATATACACGTACATATATACATATATAT [XGTACX_site5872],9.85
15,TGAAAAACTATCAGAGTGCATATATAGCTCGATACA,9.65
16,TACATATATATAATATATATATCATCATATTTTCTT [XGTACX_negctrl_site478],9.74
17,CTTAAACTTTTAAATACACACATACAGACATACACA [CACACA_site6401],10.5
18,TTTACTTTTTTTATATATTATTTATTATATAATATA [CACACA_negctrl_site211],9.67
19,TAAAAATGATCAAAGGGTACAGTATTAATTAAAAAA [XGTACX_site1079],9.69
20,AATATACGATTGTCATTCATACATTGTTAACATAGT [CACACA_negctrl_site1151],9.6
21,ATATACAGAAAAAATTAAAATAAATATGCAAAACAA [CACACA_negctrl_site704],9.84
22,TACAATGAACATGAAACACACAAAAAAAAAAAAAAA [CACACA_site1544],9.53

row,Sequence,gcPBM binding intensity (ln)
1,ACATAGTAAATATTATGTACATAATATATACATTTA [XGTACX_site7500],9.66
2,TATTATAAATAAATAGAAAAAAAAATGATAAATGGA [CACACA_negctrl_site865],9.67
3,TATTTAGACATAACAAATAGACTAACAAAAGATTTA [GTGCAC_negctrl_site614],9.51
4,ATAATAAATACACTAGTGCAAAATAATATATGTACT [GTGCAC_site9707],10.1
5,TTTATTTATATAATTACACACATATATACTCAAATG [CACACA_site5543],9.75
6,ATATGTACTATACGCACACACACTCACATATTTATA [CACACA_site7510],10.7
7,TTCTTAATTCATACCATCAAAACATTTATTCATATC [CACACA_negctrl_site43],9.57
8,ATAGGGTTTCTACTTTAACATTTTTGAAATATTATA [GTGCAC_negctrl_site260],9.52
9,AATATATACACATGCGCACACACAAGTGGGAAATTT [CACACA_site8527],10.2
10,AAATGTGTTAATGTGCGTACACATATATATAATATT [XGTACX_site2792],9.79
11,ATCACTAATTTTTTTACACACCACAATTTAATTTTT [CACACA_site1186],9.94
12,TCATTTAAGTCATATTGAAATATGCATTATTCAAAA [CACACA_negctrl_site958],9.36
13,TTTTGCCTGAACAATGCATGTTATTTTTATTTTTTT [TGCATGCA_site673],9.75
14,TTTATATTTCATTTGTTATTTTTCTTGGTTCTATAT [TGCATGCA_negctrl_site23],9.66
15,TTTTTTTTTTTTTTTTTTATATTTCATAATTTCATT [XGTACX_negctrl_site579],9.15
16,TACACAAAAATAAACACACACACATATATATATATA [CACACA_site1000],10.2
17,TATATATTCCTCCATAGTACAATAATAAAGATAAAA [XGTACX_site5785],9.61
18,ACCAATTTGACAAACTGTACAAAAAAAATATTAAAA [XGTACX_site1186],9.5
19,AACACCCAAAAACACACACACATACATACATACATA [CACACA_site4411],10.3
20,AACATTAATTTCCTATGTACTTAATATATTGTTTTT [XGTACX_site4440],9.81
21,ATTTATATATATGTATGTACGTATGTGTGTATATGT [XGTACX_site7587],10.2
22,CTTTCCCTATATTGCTGTACATGTATTCAAAAAACA [XGTACX_site353],9.58

row,Sequence,gcPBM binding intensity (ln)
1,CGCGAACATACATACACACACATATATATATCTGTA [CACACA_site4277],10.2
2,TTATGTATATTATAAATTAATACCTTTAAATTAATA [CACACA_negctrl_site67],9.18
3,ATAATCCTGAAACACACACACACACCCATAAATAAA [CACACA_site481],11.1
4,TATAACTTATTTTTTAGTACATATTATAGTTCATTT [XGTACX_site8649],9.65
5,TATATATACTTAGAAACACACAAAAATATTTTATAA [CACACA_site2578],9.67
6,TAATTAGTTTTTACTTTTTTTTTTTTTTTTCTATAT [CACACA_negctrl_site1024],9.44
7,ATAAAAAGCTAAAAAGTGCAAAAAGTAAATATTTAA,10.1
8,TTTTATAAAGAACACAGACACACAAAGAAAGAACCA [CACACA_site4174],10.2
9,TAAAAGGAGACATATACACACATATATATATATATA [CACACA_site5539],9.9
10,ATTCCTCATTAATATTCTTATTTTTTAATTCACATT [XGTACX_negctrl_site329],9.96
11,TTTATTTAAAATAAGTGTACTAGAAAAATTAAGCAG [XGTACX_site4982],9.52
12,TGTGATTATGATAAAAGTACAGAAATAAATATACTA [XGTACX_site38],9.63
13,ATGTATGTTTGTTATGCACACAAATGCATCTTATTT [CACACA_site8861],10.2
14,ATAATGAACAATATTATATATAAAATATAATTTATA [GTGCAC_negctrl_site564],9.56
15,ATTATGTATACATAAACACACATATATATAAAAAAA [CACACA_site262],9.88
16,GAGAAATGGGGACACACACACATATTATATATATAT [CACACA_site4943],10.4
17,TATATATATCTGTACACACACACATATAAATAAATA [CACACA_site4405],10.2
18,AAGCACAAAAAATACACACACAAAAAATAAAAAAAG [CACACA_site1840],10.5
19,TATATGCATAATAACTGTACACAAATTGGGGTTGAT [XGTACX_site459],9.92
20,ATATAAATATATGTATGTACGCATGTATGTATCTAT [XGTACX_site3290],9.85
21,TTTTAATTTATTTATGCACACATATATAATTACACA [CACACA_site8126],9.79
22,AAAAATAAACAATATATAGTTATATATATATATATA [TGCATGCA_negctrl_site82],9.71

row,Sequence,gcPBM binding intensity (ln)
1,ATTATATATATGTGCACACAAAAGATATATATATAT [CACACA_site5205],10.1
2,AAATAATTTACTTAATGTACATATATATATATATAT [XGTACX_site8594],9.78
3,ATATTTATTTGTTAGTGTACATACATATATATATAT [XGTACX_site1347],9.89
4,TTTTCTATGCTAAACACACTCATTGTTACAAGTTTT [CACACA_site5531],9.76
5,TATATATATTTTATATGTACGTATGGAACAATATGA [XGTACX_site8167],9.54
6,TTATTTATTTTTTATACACACAATTATCATTTTAAG [CACACA_site22],9.74
7,TGTTGTAAATTAAAGACATGCACGTGAGAAAATATA [TGCATGCA_site285],10
8,AATTATATACATAAGTGTACATAATATATAAACATA [XGTACX_site793],9.77
9,TTTTCAATTAATAATACACACATGTATTTATTATTA [CACACA_site5774],9.77
10,TTAATTAGAAATCATACACACATATAAATAAATATA [CACACA_site6225],9.76
11,TATTTGTTTGTTCGGGTGCTTACATATATTCTTATA [GTGCAC_site9972],9.89
12,TGTGCCTATAAATTAACACACAGAAATATATAGAGA [CACACA_site818],9.73
13,TTATTCTGACAGAATTGTACTAATGTCTTTAAAAAA [XGTACX_site1256],9.06
14,TATACTAAGAAGTATTTACACACCAACAAGGCGAAA [CACACA_site8963],9.73
15,TAAGTTTATTGAAATTGTACAAACATAAATGTAAAA [XGTACX_site162],9.65
16,TTATATTTTTTTTTTTCACACACATTTATATTGTAT [CACACA_site9025],10.2
17,AAATTAAGTATATATTGTACACATAATATGATTGTA [XGTACX_site3083],9.77
18,TTATTTTCATATAGGTGTACATAAAAATATTCTTAT [XGTACX_site8861],9.59
19,TATCATAAAAAATATACACACAAAGGATATATATAT [CACACA_site1571],9.79
20,ATGTTCATTATATGCACACATATATATAAATGTAAT [CACACA_site2908],9.78
21,CATACATACGGACACACACACATATATATATATATA [CACACA_site5598],10.4
22,AAAAAAGAAAAAAGGACACACATAAATATACTCACG [CACACA_site2904],10.1
